Assay results reported in patent US11000038B2, “Pyridone compounds and agricultural and horticultural fungicides containing the same as active ingredients” (priority 2017, dated 2021).

Assays:
[1] = test system: cabbage Alternaria sooty spot fungi (Alternaia brassicicola); assay: Test Example C: cabbage Alternaria sooty spot, spray treatment of cabbage plants; format: in vivo; settings: cabbage Alternaria sooty spot, spray treatment
Text: [Test Example C] Cabbage Alternaria Sooty Spot
Test plants (cabbage variety: Shikidori) were cultivated until the cotyledons extended after the sowing of seeds.
<Control Value> Control value=100{1−(n/3)}

[2] = test system: wheat brown rust fungi (Puccinia recondita); assay: Test Example E: wheat brown rust, spray treatment of wheat plants; format: in vivo; settings: wheat brown rust, spray treatment
[3] = test system: gray mold fungi (Botrytis cinerea); assay: Test Example B: tomato gray mold, spray treatment of tomato plants; settings: tomato gray mold, spray treatment
[4] = test system: grape downy mildew fungus (Plasmopara viticola); assay: Test Example G: grape downy mildew, spray treatment of grape plants; settings: grape downy mildew, 250 ppm spray, 7 to 10 days after inoculation
[5] = test system: barley powdery mildew fungi (Blumeria graminis f. sp. hordei); assay: Test Example D: barley powdery mildew, spray treatment of barley plants; settings: barley powdery mildew, spray treatment

Compound: CCc1c(-c2c(F)cc(F)cc2F)n(-c2cccc(OC)c2C)cc(C)c1=O [Compound 514]
- Test C control value [1]: H (H shows the control value of more than 50%)
- Test E control value [2]: H (H shows the control value of more than 50%)
- Test B control value [3]: H (H shows the control value of more than 50%)
- Test G control value [4]: H (H shows the control value of more than 50%)
- Test D control value [5]: H (H shows the control value of more than 50%)

Compound: CCc1c(-c2c(F)cc(F)cc2F)n(-c2cccc(Cl)c2C)cc(Br)c1=O [Compound 515]
- Test C control value [1]: H (H shows the control value of more than 50%)
- Test E control value [2]: H (H shows the control value of more than 50%)
- Test B control value [3]: H (H shows the control value of more than 50%)
- Test G control value [4]: L (L shows the control value of 50% or less)
- Test D control value [5]: H (H shows the control value of more than 50%)

Compound: CCc1ccccc1-n1cc(C)c(=O)c(C)c1-c1ccccc1 [Compound 516]
- Test C control value [1]: L (L shows the control value of 50% or less)
- Test E control value [2]: L (L shows the control value of 50% or less)
- Test B control value [3]: L (L shows the control value of 50% or less)
- Test G control value [4]: L (L shows the control value of 50% or less)
- Test D control value [5]: L (L shows the control value of 50% or less)

Compound: Cc1ccc(Cl)cc1-n1cc(C)c(=O)c(C)c1-c1ccccc1 [Compound 517]
- Test C control value [1]: L (L shows the control value of 50% or less)
- Test E control value [2]: L (L shows the control value of 50% or less)
- Test B control value [3]: H (H shows the control value of more than 50%)
- Test G control value [4]: L (L shows the control value of 50% or less)
- Test D control value [5]: L (L shows the control value of 50% or less)

Compound: Cc1ccc(Br)cc1-n1cc(C)c(=O)c(C)c1-c1ccccc1 [Compound 518]
- Test C control value [1]: L (L shows the control value of 50% or less)
- Test E control value [2]: L (L shows the control value of 50% or less)
- Test B control value [3]: H (H shows the control value of more than 50%)
- Test G control value [4]: L (L shows the control value of 50% or less)
- Test D control value [5]: L (L shows the control value of 50% or less)

Compound: CCc1c(-c2c(F)cc(F)cc2F)n(-c2cc(C)ccc2C)cc(Br)c1=O [Compound 519]
- Test C control value [1]: H (H shows the control value of more than 50%)
- Test E control value [2]: H (H shows the control value of more than 50%)
- Test B control value [3]: H (H shows the control value of more than 50%)
- Test G control value [4]: L (L shows the control value of 50% or less)
- Test D control value [5]: H (H shows the control value of more than 50%)

Compound: CCc1c(-c2c(F)cc(F)cc2F)n(-c2cc(C)ccc2C)cc(C)c1=O [Compound 520]
- Test C control value [1]: H (H shows the control value of more than 50%)
- Test E control value [2]: H (H shows the control value of more than 50%)
- Test B control value [3]: H (H shows the control value of more than 50%)
- Test G control value [4]: L (L shows the control value of 50% or less)
- Test D control value [5]: H (H shows the control value of more than 50%)

Compound: CCc1c(-c2c(F)cc(F)cc2F)n(-c2cc(F)ccc2C)cc(Br)c1=O [Compound 521]
- Test C control value [1]: H (H shows the control value of more than 50%)
- Test E control value [2]: H (H shows the control value of more than 50%)
- Test B control value [3]: H (H shows the control value of more than 50%)
- Test G control value [4]: L (L shows the control value of 50% or less)
- Test D control value [5]: L (L shows the control value of 50% or less)

Compound: CCc1c(-c2c(F)cc(F)cc2F)n(-c2cc(F)ccc2C)cc(C)c1=O [Compound 522]
- Test C control value [1]: H (H shows the control value of more than 50%)
- Test E control value [2]: H (H shows the control value of more than 50%)
- Test B control value [3]: H (H shows the control value of more than 50%)
- Test G control value [4]: L (L shows the control value of 50% or less)
- Test D control value [5]: H (H shows the control value of more than 50%)

Compound: CCc1c(-c2c(F)cccc2F)n(-c2cccc(Cl)c2C)cc(Br)c1=O [Compound 524]
- Test C control value [1]: H (H shows the control value of more than 50%)
- Test E control value [2]: H (H shows the control value of more than 50%)
- Test B control value [3]: H (H shows the control value of more than 50%)
- Test G control value [4]: L (L shows the control value of 50% or less)
- Test D control value [5]: L (L shows the control value of 50% or less)

Compound: CCc1c(-c2c(F)cccc2F)n(-c2cccc(Cl)c2C)cc(C)c1=O [Compound 525]
- Test C control value [1]: H (H shows the control value of more than 50%)
- Test E control value [2]: H (H shows the control value of more than 50%)
- Test B control value [3]: H (H shows the control value of more than 50%)
- Test G control value [4]: L (L shows the control value of 50% or less)
- Test D control value [5]: H (H shows the control value of more than 50%)

Compound: CCc1c(-c2c(F)cccc2F)n(-c2cccc(Br)c2C)cc(Br)c1=O [Compound 526]
- Test C control value [1]: H (H shows the control value of more than 50%)
- Test E control value [2]: H (H shows the control value of more than 50%)
- Test B control value [3]: H (H shows the control value of more than 50%)
- Test G control value [4]: L (L shows the control value of 50% or less)
- Test D control value [5]: L (L shows the control value of 50% or less)

Compound: CCc1c(-c2c(F)cc(F)cc2F)n(-c2cc(OC)ccc2C)cc(Br)c1=O [Compound 527]
- Test C control value [1]: H (H shows the control value of more than 50%)
- Test E control value [2]: H (H shows the control value of more than 50%)
- Test B control value [3]: H (H shows the control value of more than 50%)
- Test G control value [4]: H (H shows the control value of more than 50%)
- Test D control value [5]: H (H shows the control value of more than 50%)

Compound: CCc1c(-c2c(F)cc(F)cc2F)n(-c2cccc(C)c2C)cc(Br)c1=O [Compound 528, 5-bromo-1-(2,3-dimethylphenyl)-3-ethyl-2-(2,4,6-trifluorophenyl)pyridin-4(1H)-one]
- Test C control value [1]: H (H shows the control value of more than 50%)
- Test E control value [2]: H (H shows the control value of more than 50%)
- Test B control value [3]: H (H shows the control value of more than 50%)
- Test G control value [4]: L (L shows the control value of 50% or less)
- Test D control value [5]: H (H shows the control value of more than 50%)

Compound: CCc1c(-c2c(F)cc(F)cc2F)n(-c2cc(Br)ccc2C)cc(Br)c1=O [Compound 529]
- Test C control value [1]: H (H shows the control value of more than 50%)
- Test E control value [2]: H (H shows the control value of more than 50%)
- Test B control value [3]: H (H shows the control value of more than 50%)
- Test G control value [4]: L (L shows the control value of 50% or less)
- Test D control value [5]: H (H shows the control value of more than 50%)

Compound: CCc1c(-c2c(F)cc(F)cc2F)n(-c2cccc(F)c2C)cc(Br)c1=O [Compound 530]
- Test C control value [1]: H (H shows the control value of more than 50%)
- Test E control value [2]: H (H shows the control value of more than 50%)
- Test B control value [3]: H (H shows the control value of more than 50%)
- Test G control value [4]: L (L shows the control value of 50% or less)
- Test D control value [5]: H (H shows the control value of more than 50%)

Compound: CCc1c(-c2c(F)cccc2F)n(-c2ccccc2)cc(Br)c1=O [Compound 531]
- Test C control value [1]: H (H shows the control value of more than 50%)
- Test E control value [2]: L (L shows the control value of 50% or less)
- Test B control value [3]: H (H shows the control value of more than 50%)
- Test G control value [4]: L (L shows the control value of 50% or less)
- Test D control value [5]: L (L shows the control value of 50% or less)

Compound: CCc1c(-c2c(F)cc(F)cc2F)n(-c2cc(OC)ccc2C)cc(C)c1=O [Compound 532]
- Test C control value [1]: H (H shows the control value of more than 50%)
- Test E control value [2]: H (H shows the control value of more than 50%)
- Test B control value [3]: H (H shows the control value of more than 50%)
- Test G control value [4]: L (L shows the control value of 50% or less)
- Test D control value [5]: H (H shows the control value of more than 50%)

Compound: CCc1c(-c2c(F)cc(F)cc2F)n(-c2cccc(C)c2C)cc(C)c1=O [Compound 533, 1-(2,3-dimethylphenyl)-3-ethyl-5-methyl-2-(2,4,6-trifluorophenyl)pyridin-4(1H)-one]
- Test C control value [1]: H (H shows the control value of more than 50%)
- Test E control value [2]: H (H shows the control value of more than 50%)
- Test B control value [3]: H (H shows the control value of more than 50%)
- Test G control value [4]: L (L shows the control value of 50% or less)
- Test D control value [5]: H (H shows the control value of more than 50%)

Compound: CCc1ccccc1-n1cc(C)c(=O)c(CC)c1-c1ccccc1 [Compound 534]
- Test C control value [1]: H (H shows the control value of more than 50%)
- Test E control value [2]: L (L shows the control value of 50% or less)
- Test B control value [3]: H (H shows the control value of more than 50%)
- Test G control value [4]: L (L shows the control value of 50% or less)
- Test D control value [5]: L (L shows the control value of 50% or less)

Compound: CCc1c(-c2ccccc2)n(-c2ccccc2Cl)cc(Br)c1=O [Compound 535]
- Test C control value [1]: H (H shows the control value of more than 50%)
- Test E control value [2]: H (H shows the control value of more than 50%)
- Test B control value [3]: H (H shows the control value of more than 50%)
- Test G control value [4]: L (L shows the control value of 50% or less)
- Test D control value [5]: L (L shows the control value of 50% or less)
